# Screen size: about 46,000 compounds; about 60 (0.1%) were called active. Another 3% or so got no clear call; they are omitted. The call rests on the fitted dose curve; in most records, active means well fitted inhibition curve with a large enough effect; inconclusive means small, poorly fitted or top-dose-only effect; inactive means no such curve, though single readings can be large or run the other way. The list shows a part of the results.
# Test: Primary qHTS assay for Inhibitors of ovarian cancer metastasis using an organotypic tumor microenvironment (TME) model. Further: nearly all actives have a fitted effect of over 65% in size.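 On activity change, negative = inhibition: plate controls were DMSO wells for no effect and tomatine positive control wells for full effect.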
# Conditions: SKOV3ip1-GFP adhesion/invasion on 3D omental model, fluorescence; series mostly up to 45.8 µM; activity change, negative = inhibition: at the top concentration
# In short: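 Adhesion/invasion was scored as fixed GFP-labeled SKOV3ip1 cell counts (488/509 nm), normalized to DMSO and tomatine controls. Cancer cells in serum-free medium, with four compound doses (0.36-46 umol/L), sat 2 hr at RT then 16 hr at 37 C on a 48 hr fibroblast/mesothelial/ECM culture.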
SMILES,"activity change, negative = inhibition",outcome
c1ccc(OCCn2c(COc3ccccc3)nc3ccccc32)cc1,inactive: -18.6%,–
Cc1ccc2[nH]c(=O)c3cc(C(=O)NCCc4ccc(Cl)cc4)sc3c2c1,inactive: -3.82%,–
CCc1ccc(NC(=O)c2cnc3sc(N4CCCC4)nn3c2=O)cc1,inactive: 3.61%,–
Cc1cc2nc(-c3ccc(OCc4ccccc4)cc3)cc(C(F)(F)F)n2n1,inactive: 3.77%,–
O=S(=O)(Nc1ccc(-c2ccc(N3CCCC3)nn2)cc1)c1cc(F)ccc1F,inactive: -2.3%,–
CC1=C(C(=O)Nc2ccc(C)cc2C)C(c2ccccc2F)n2nc(SCC(=O)c3ccc(C)cc3)nc2N1 (configuration not stated),inactive: -19.8%,–
O=C(Cn1c(=O)c2cccn2c2cccnc21)NCc1ccccc1F,inactive: 4.84%,–
Cc1cc(-n2c(C)nc3ccccc3c2=O)ccc1NC(=O)c1ccc([N+](=O)[O-])cc1,inactive: -0.648%,–
O=C(Nc1ccc(S(=O)(=O)N2CCCCCC2)cc1)c1cc(=O)c2ccccc2o1,inactive: -5.86%,–
COc1ccccc1NC(=O)C1CCC(CNS(=O)(=O)c2ccc3c(c2)CC(C)N3C(C)=O)CC1 (configuration not stated),–,inactive
COc1ccc(NCc2cc3ccc(OC)cc3n(CC(=O)Nc3cc(Cl)ccc3C)c2=O)cc1,inactive: -15%,–
Cc1cc(=O)n(CC(=O)N2CCN(c3ccc(F)cc3)CC2)c2c1c(C)nn2C,inactive: -6.48%,–
Nc1c(-c2nc(-c3ccc(F)cc3)cs2)c2ccccn2c1C(=O)c1ccc2c(c1)OCO2,inactive: 3.35%,–
COC(=O)CN1C(=O)CSc2ccc(S(=O)(=O)Nc3cccc(Cl)c3C)cc21,–,inactive
CCOc1ccc(NS(=O)(=O)c2ccc3[nH]cc(C(=O)NCC4CCCO4)c(=O)c3c2)cc1 (configuration not stated),inactive: -1.21%,–
CCOc1ccc(N2CC(C(=O)NCc3nnnn3-c3ccc(C)c(C)c3)CC2=O)cc1 (configuration not stated),inactive: -9.17%,–
CC(=O)c1ccc(N2CCN(C(=O)CCS(=O)(=O)c3ccc4c(c3)oc(=O)n4C)CC2)cc1,inactive: -13.6%,–
CC1CCc2c(sc(NC(=O)c3cc4nc(-c5ccc(Cl)cc5)cc(C(F)(F)F)n4n3)c2C#N)C1 (configuration not stated),–,inactive
CCc1cccc(NC(=O)CN(C)S(=O)(=O)c2cccc3cccnc23)c1,inactive: 1.42%,–
CC(Oc1ccccc1F)C(=O)Nc1ccc(-c2nc3ccccc3s2)cc1 (configuration not stated),inactive: -7.44%,–
CC(=O)c1cccc(NC(=O)c2cc3c(s2)-c2c(C)cccc2OC3)c1,inactive: -1.48%,–
Cc1ccc(Cl)cc1NC(=O)CN1C(=O)C(C)(C)c2cc(S(=O)(=O)N3CCCCC3)ccc21,–,inactive
CCC1CCCCN1C(=O)c1sc(-n2nc(C)c(Cc3ccccc3)c2C)nc1C (configuration not stated),inactive: 13.1%,–
COc1ccc(S(=O)(=O)c2cnc(SCC(=O)Nc3cc(F)ccc3C)[nH]c2=O)cc1Cl,–,inactive

SMILES,"activity change, negative = inhibition",outcome
CCOc1ccccc1NC(=O)C(C)N(c1ccccc1)S(C)(=O)=O (configuration not stated),–,inactive
COc1cc(/C=C/c2nc(C#N)c(N3CCC(C)CC3)o2)cc(OC)c1OC,inactive: 1.33%,–
CCOC(=O)c1ccc(OC(=O)c2cn(-c3cccc(OC)c3)c(=O)c3ccccc23)cc1,–,inactive
CCc1ccc2c(c1)NC(c1ccc(OC)cc1)=NC(c1ccncc1)=N2,inactive: 0.692%,–
CCOC(=O)c1c(S(=O)(=O)NCC(=O)NCc2ccccc2)c(C)n(C)c1C,inactive: -5.9%,–
Cc1cccc(-c2nc3c4ccccc4nc(NCc4ccc(F)cc4)n3n2)c1,inactive: 0.638%,–
COc1cccc(OC(=O)CSc2nnc(-c3ccc4c(c3)OCO4)o2)c1,inactive: -5.08%,–
CC(C)CCN(C(=O)Nc1ccc(Cl)c(Cl)c1)C(C)c1cccs1 (configuration not stated),inactive: -8.24%,–
COc1ccccc1OCC(=O)Nc1c(C(=O)c2ccc(F)cc2)oc2ccccc12,inactive: -9.46%,–
CSc1ncc(C(=O)N2CCN(c3cccc(C(F)(F)F)c3)CC2)c(C)n1,inactive: -4.71%,–
Cc1ccc2c(c1)N(CCCC(=O)NCc1cccc(F)c1)C(=O)CO2,inactive: 13.6%,–
COc1ccc(C2N3CC4(C)CN2CC(c2ccccc2)(C3)C4=O)cc1OC (configuration not stated),inactive: 6.25%,–
COc1ccc(C2CC(=O)c3cc(-c4nc(-c5cccc([N+](=O)[O-])c5)cs4)c(=O)n(-c4ccc(OC)cc4)c3C2)cc1 (configuration not stated),inactive: 12.2%,–
COc1cccc(-n2c(=O)c3sc4ccccc4c3n(CC(=O)Nc3ccccc3C)c2=O)c1,inactive: -6.19%,–
CCCN(CCC)CCCNC(=O)c1cc2c(=O)[nH]c3ccccc3c2n1C,inactive: -23.1%,–
N#Cc1ccc(NC(=O)Nc2ccccc2Br)c2n[nH]nc12,inactive: 45.1%,–
Cc1ccc(NC(=O)C2CCN(S(=O)(=O)c3cc(-c4noc(C)n4)ccc3C)CC2)c(C)c1,inactive: -2.21%,–
CCOC(=O)c1ccccc1NC(=O)CCc1nc(-c2ccc(C)cc2)no1,inactive: 3.89%,–
CC(CNC(=O)CCS(=O)(=O)c1cc2c(cc1Cl)NC(=O)CO2)c1ccccc1 (configuration not stated),inactive: -7.96%,–
CCCCOc1ccc(Cn2c(=O)sc3ccccc32)cc1,inactive: 1.46%,–
CCc1ccc(NC(=O)c2nn(-c3ccc(OC)cc3)c(=O)c3c2c2ccccc2n3C)cc1,–,inactive
COc1ccc(N2CCN(c3csc4ccccc4c3=O)CC2)cc1,inactive: -0.408%,–
CCc1ccc(Oc2c(C(F)(F)F)oc3c(CN4CCCC(C)C4)c(O)ccc3c2=O)cc1 (configuration not stated),–,inactive
